# In the supplement of paper PMC10037445:
# Over roughly 2,900 compounds, “IRF Lucia reporter activity, fold change vs agonist alone” has its median near 0.9; the highest 2% begin near 2.8. The list shows a part of the results.
# Key:
# [1] = system: RAW-Dual; assay: IRF Lucia reporter activity, fold change vs agonist alone; higher = enhanced IRF activity; settings: cytotoxicity flag (confluency mask): not cytotoxic, agonist: MPLA (TLR4) […]
# How it was run: (§1)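 After 50 nL of library stock was delivered by pin tool to RAW-Dual macrophages (50,000 cells/well, DMEM, 384-well plates), a PRR agonist was added 1 h later and the plates were kept at 37 °C, 5% CO2. Twenty hours later, IRF was read from supernatant by QuantiLuc luminescence and NF-κB by QuantiBlue absorbance at 620 nm. Reporter activity is stated as fold change over agonist-alone wells. Wells with IncuCyte confluency under 70% of agonist controls in both mask sets were counted as cytotoxic.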
# [2] = system: RAW-Dual; assay: IRF Lucia reporter activity, fold change vs agonist alone; cytotoxicity flag (confluency mask): not cytotoxic; higher = enhanced IRF activity
# How it was run: as §1
# [3] = system: RAW-Dual; assay: IRF Lucia reporter activity, fold change vs agonist alone; cytotoxicity flag (confluency mask): cytotoxic (confluency <70% of control); higher = enhanced IRF activity
# How it was run: as §1
# [4] = library stock concentration (final ~1000-fold dilution): 10 mM
# [5] = agonist: 3'3'-cGAMP (STING) 10 ug/mL
compound,measurement,setting,value
CCCc1cc(C)[nH]c(=O)c1CNC(=O)c1cc(-c2ccc(N3CCN(C(C)C)CC3)nc2)cc2c1cnn2C(C)C,IRF Lucia reporter activity,[1]; [4],1.25
CCCC(NC1CCc2cc(F)cc(F)c2C1)C(=O)Nc1cn(C(C)(C)CNCC(C)(C)C)cn1 (stereo unspecified) (library stock concentration (final ~1000-fold dilution): 10 mM),IRF Lucia reporter activity,[2]; [5],0.398
same,IRF Lucia reporter activity,[2]; agonist: LPS (TLR4) 0.1 ug/mL,2.4
CCC(C)CCCCC(=O)NC(CCN)C(=O)NC(C(=O)NC(CCN)C(=O)NC1CCNC(=O)C(C(C)O)NC(=O)C(CCN)NC(=O)C(CCN)NC(=O)C(CC(C)C)NC(=O)C(Cc2ccccc2)NC(=O)C(CCN)NC1=O)C(C)O (stereo unspecified) (library stock concentration (final ~1000-fold dilution): 15 uM),IRF Lucia reporter activity,[2]; [5],0.927
same,IRF Lucia reporter activity,[2]; agonist: LPS (TLR4) 0.1 ug/mL,0.03
NC(=O)c1ccc(N(C(N)=O)c2c(F)cccc2F)nc1-c1ccc(F)cc1F,IRF Lucia reporter activity,[1]; [4],1.13
NC(=O)c1ccc(N(C(N)=O)c2c(F)cccc2F)nc1-c1ccc(F)cc1F (library stock concentration (final ~1000-fold dilution): 10 mM),IRF Lucia reporter activity,[2]; [5],1.02
same,IRF Lucia reporter activity,[2]; agonist: LPS (TLR4) 0.1 ug/mL,0.768
COC(=O)C1=C(C)NC(C)=C(C(=O)OCCN(C)Cc2ccccc2)C1c1cccc([N+](=O)[O-])c1.Cl (stereo unspecified),IRF Lucia reporter activity,[1]; [4],1.12
COC(=O)C1=C(C)NC(C)=C(C(=O)OCCN(C)Cc2ccccc2)C1c1cccc([N+](=O)[O-])c1.Cl (stereo unspecified) (library stock concentration (final ~1000-fold dilution): 10 mM),IRF Lucia reporter activity,[2]; [5],0.3
same,IRF Lucia reporter activity,[2]; agonist: LPS (TLR4) 0.1 ug/mL,1.4
Nc1c(CC(=O)O)cccc1C(=O)c1ccccc1,IRF Lucia reporter activity,[1]; [4],1.17
Nc1c(CC(=O)O)cccc1C(=O)c1ccccc1 (library stock concentration (final ~1000-fold dilution): 10 mM),IRF Lucia reporter activity,[2]; [5],1.16
same,IRF Lucia reporter activity,[2]; agonist: LPS (TLR4) 0.1 ug/mL,1.26
CC(C)(C)C(=O)Nc1ccc2c(c1)C(=O)C(=O)c1ccccc1-2,IRF Lucia reporter activity,[1]; [4],0.0245
CC(C)(C)C(=O)Nc1ccc2c(c1)C(=O)C(=O)c1ccccc1-2 (library stock concentration (final ~1000-fold dilution): 10 mM),IRF Lucia reporter activity,[2]; [5],0.0753
same,IRF Lucia reporter activity,[2]; agonist: LPS (TLR4) 0.1 ug/mL,0.0184
Nc1nc(NC2CC2)c2ncn(C3C=CC(CO)C3)c2n1 (stereo unspecified),IRF Lucia reporter activity,[1]; [4],1.06
Nc1nc(NC2CC2)c2ncn(C3C=CC(CO)C3)c2n1 (stereo unspecified) (library stock concentration (final ~1000-fold dilution): 10 mM),IRF Lucia reporter activity,[2]; [5],0.94
same,IRF Lucia reporter activity,[2]; agonist: LPS (TLR4) 0.1 ug/mL,1.16
COc1cccc(C=Nc2cccc(C(=O)O)c2C)c1O (library stock concentration (final ~1000-fold dilution): 1 mM),IRF Lucia reporter activity,[2]; [5],1.13
same,IRF Lucia reporter activity,[2]; agonist: LPS (TLR4) 0.1 ug/mL,0.845
N=C1NC(=O)/C(=C/c2ccc(O)cc2)S1 (library stock concentration (final ~1000-fold dilution): 10 mM),IRF Lucia reporter activity,[2]; [5],0.687
same,IRF Lucia reporter activity,[2]; agonist: LPS (TLR4) 0.1 ug/mL,0.843
CN(C)C(=O)Nc1cccc(-c2ccc(N(C)C)cc2)c1 (library stock concentration (final ~1000-fold dilution): 10 mM),IRF Lucia reporter activity,[2]; [5],0.907
same,IRF Lucia reporter activity,[2]; agonist: LPS (TLR4) 0.1 ug/mL,0.77
CN(C)C(=O)Nc1cccc(-c2ccc(N(C)C)cc2)c1,IRF Lucia reporter activity,[1]; [4],1.08
O=C(c1ccc(Oc2ccccc2)cc1Cl)c1c[nH]c2ncnc(NC3CCC(CO)OC3)c12 (stereo unspecified) (library stock concentration (final ~1000-fold dilution): 10 mM),IRF Lucia reporter activity,[3]; [5],0.23
same,IRF Lucia reporter activity,[3]; agonist: LPS (TLR4) 0.1 ug/mL,0.593
C=CC(=O)N1CCC(CNc2ncnc(N)c2-c2ccc(Oc3ccccc3)cc2)CC1 (library stock concentration (final ~1000-fold dilution): 10 mM),IRF Lucia reporter activity,[2]; [5],0.787
same,IRF Lucia reporter activity,[2]; agonist: LPS (TLR4) 0.1 ug/mL,0.55
C=CC(C)(/C=C/c1ccc(O)cc1)CCC=C(C)C (stereo unspecified),IRF Lucia reporter activity,[1]; [4],1.13
C=CC(C)(/C=C/c1ccc(O)cc1)CCC=C(C)C (stereo unspecified) (library stock concentration (final ~1000-fold dilution): 10 mM),IRF Lucia reporter activity,[2]; [5],0.407
same,IRF Lucia reporter activity,[2]; agonist: LPS (TLR4) 0.1 ug/mL,1.13
N#Cc1ccc(C(c2ccc(C#N)cc2)n2cncn2)cc1 (library stock concentration (final ~1000-fold dilution): 10 mM),IRF Lucia reporter activity,[2]; [5],0.973
same,IRF Lucia reporter activity,[2]; agonist: LPS (TLR4) 0.1 ug/mL,0.931
N#Cc1ccc(C(c2ccc(C#N)cc2)n2cncn2)cc1,IRF Lucia reporter activity,[1]; [4],1.02
CCCC1CC(C(=O)NC(C(C)Cl)C2OC(SC)C(O)C(O)C2O)N(C)C1 (stereo unspecified) (library stock concentration (final ~1000-fold dilution): 10 mM),IRF Lucia reporter activity,[2]; [5],1.07
same,IRF Lucia reporter activity,[2]; agonist: LPS (TLR4) 0.1 ug/mL,0.931
CCCC1CC(C(=O)NC(C(C)Cl)C2OC(SC)C(O)C(O)C2O)N(C)C1 (stereo unspecified),IRF Lucia reporter activity,[1]; [4],1.11
NC(=O)CCC(N)C(=O)O (stereo unspecified),IRF Lucia reporter activity,[1]; library stock concentration (final ~1000-fold dilution): L-Glutamine,1.25
NC(=O)CCC(N)C(=O)O (library stock concentration (final ~1000-fold dilution): L-Glutamine),IRF Lucia reporter activity,[2]; [5],1.51
same,IRF Lucia reporter activity,[2]; agonist: LPS (TLR4) 0.1 ug/mL,0.923
C[N+]1(C)CCC(OC(=O)C(O)(c2ccccc2)C2CCCC2)C1 (stereo unspecified) (library stock concentration (final ~1000-fold dilution): 10 mM),IRF Lucia reporter activity,[2]; [5],1.02
same,IRF Lucia reporter activity,[2]; agonist: LPS (TLR4) 0.1 ug/mL,1.18
C[N+]1(C)CCC(OC(=O)C(O)(c2ccccc2)C2CCCC2)C1 (stereo unspecified),IRF Lucia reporter activity,[1]; [4],1.09
